Test results published in ChEMBL document CHEMBL1157539, “Thousands of chemical starting points for antimalarial lead identification” (Nature, 2010).
In all, about 13,000 compounds were measured (“IFI”: median about 4, highest 2% from about 17 on). The list shows a part of the results.

Assay: GSK_TCMDC: Inhibition Frequency Index (IFI). The number of non-kinase HTS assays where a compound showed > 50 % inhibition, expressed as a percentage of the number of such assays in which the compound was tested (-0 is zero)
Type: functional

| SMILES | IFI |
| --- | --- |
| Cc1cccnc1CNc1nccc2c(C)c(C)[nH]c12 | 3.85% |
| CN1C(=O)C(=NN=C(S)N2CCOCC2)c2ccccc21 | 6.94% |
| Cc1ccc(NC(=O)c2ccc(CN3CCCN(Cc4cccc(O)c4)CC3)cc2)cc1 | 9.52% |
| Cc1ccc2[nH]c3c(NCCN(C)C)ncnc3c2c1 | -0% |
| O=C(Nc1cccc(F)c1)N[C@H]1CCN(CCCCCNC(=O)C2CC2c2ccc(Cl)c(Cl)c2)C1 (some centres not stated) | 19.4% |
| CN1CCN(CCCNc2ncc3c(-c4ccc(NC(=O)Nc5cc(C(F)(F)F)ccc5F)c(F)c4)nn(C)c3n2)CC1 | 9.35% |
| Cc1cc2nc(-c3ccc(/C=C/C(=O)NCCCc4ccccc4)cc3)[nH]c2cc1C | 3.79% |
| CC(C)(C)OC(=O)NCc1ccc(Nc2nnc(-c3ccc(OCC(=O)NC[C@@H]4CC[C@H]5C[C@@H]4C5(C)C)c([N+](=O)[O-])c3)o2)cc1 | 2.99% |
| Cn1cc(CN2CCC(OC(c3ccccc3)c3ccc(Cl)cc3)CC2)cn1 (configuration not stated) | 4.9% |
| COc1ccc(NC(=O)c2ccc3cc4ccccc4cc3c2)cc1N1CCN(C)CC1 | 11.2% |
| c1cncc(CCNCc2cccc(-c3csc(-c4nc5ccccc5[nH]4)c3)c2)c1 | 2.33% |
| CC(=O)c1c(Nc2c(C)cc(C)cc2C)oc(C)cc1=O | 1.37% |
| Cc1ccc(NC(=O)Nc2ccc(Cl)cc2)cc1-c1ccc(C(=O)Nc2ccncc2)cc1 | 21.1% |
| NC1CCN(Cc2cccc(-c3ccc(-c4nc5ccccc5[nH]4)cc3)c2)C1 (configuration not stated) | 2.82% |
| CO/C(=C\C=C\c1cc2cc(Cl)c(Cl)cc2[nH]1)C(=O)NCCN1CCCCC1 | 2.94% |
| NCC1CCCN1Cc1ccc(-c2ccc(-c3nc4cc(C(F)(F)F)ccc4[nH]3)cc2)cc1 (configuration not stated) | 9.9% |
| O=C(Nc1ccc(F)cc1)c1nc2ccccc2nc1Cl | 2.38% |
| O=c1ccc2ccc(F)cc2n1CCN1CCC(NCc2ccc(-c3ccccn3)s2)CC1 | 3.45% |
| OC(c1ccccc1)C1CN(CCc2ccccc2)CCC1(O)c1ccccc1 (configuration not stated) | 1.61% |

| SMILES | IFI |
| --- | --- |
| Cc1cccc(OC(C)C(=O)Nc2cc(C(F)(F)F)ccc2N2CCOCC2)c1 (configuration not stated) | 3.03% |
| CS(=O)(=O)N1CC2(CCN(CCC(NC(=O)/C=C/c3ccccc3)c3ccc(Cl)c(Cl)c3)CC2)c2ccccc21 (configuration not stated) | 4.17% |
| CC(C)C[C@H](NC(=O)[C@H](Cc1ccccc1)NC(=O)CCN1C(=O)COc2ccc(C(=O)O)cc21)C(=O)NC(CC1CCCCC1)C(O)CC(=O)NCCCn1ccnc1 (some centres not stated) | -0% |
| CS(=O)(=O)Nc1cccc(-c2cnc3[nH]cc(-c4cccc(CN)c4)c3c2)c1 | 10.9% |
| COc1cc(Nc2nccc(N3CCC(NC(=O)Nc4ccc5c(c4)OCO5)C3)n2)cc(OC)c1OC (configuration not stated) | 3.08% |
| CCN(CC)Cc1cc(Nc2c3ccc(Cl)cc3nc3cccc(OC)c23)ccc1O | 12.2% |
| CC(C)N1CCC(N(Cc2ccc(-c3ccc(C(F)(F)F)cc3)cc2)C(=O)Cn2c(CCc3cccc(F)c3F)cc(=O)c3c2CCC3)CC1 | 5.71% |
| COc1ccc2nccc([C@@H](O)CN3CCC(NC(=O)/C=C/c4ccc(Cl)c(C(F)(F)F)c4)CC3)c2c1 | 1.49% |
| Clc1ccccc1OCc1ccccn1 | -0% |
| COc1c(C2CCN(CCCCNC(=O)c3ccc(-c4ccc(C(F)(F)F)cc4)c(C(=O)OC(C)C)c3)CC2)ccc2c1CCCC2 | 7.27% |
| Cc1[nH]c(C)c(-c2ccc(OCCn3cnc(Cl)c3Cl)cc2)c(=O)c1Br | 1.89% |
| CN1CCCC1CCNCc1ccc(-c2ccc(CNCCc3ccccc3)cn2)cc1 (configuration not stated) | 4.76% |
| Nc1nc(O)c2c(n1)CCc1c(Br)cccc1-2 | 2.31% |
| CNCCNCc1ccc(-c2ccc(-c3nc4cc(F)ccc4[nH]3)cc2)cc1 | 13.9% |
| O=C(Nc1ccc(OC2CCN(Cc3ccccc3)CC2)c(Cl)c1)c1ccco1 | 3.28% |
| CCCCNC(=O)[C@H](CC1CCCCC1)NC(=O)c1ccc(O)c(-c2ccc(OC)cc2)c1 | 2.1% |
| CN(C)Cc1ccc2nc(-c3cccc(Cc4cc(Cl)ccc4OCc4ccc(Cl)cc4F)n3)[nH]c2c1 | 17.1% |
| Cc1ccccc1Cn1ccc2c3c(N)nc(N)nc3ccc21 | 4.72% |
| O=[N+]([O-])c1cc2c(cc1C=NNc1nc(=Nc3ccccc3)[nH]c(=Nc3ccccc3)[nH]1)OCO2 | -0% |

| SMILES | IFI |
| --- | --- |
| COc1ccc(NC(=O)[C@H](Cc2ccccc2)Nc2cc(C)nc(NCCc3ccccc3OC)n2)cc1 | 10.3% |
| CS(=O)(=O)NCCCNCc1ccc(-c2ccc(-c3nc4cc(C(F)(F)F)ccc4[nH]3)cc2)cc1 | 5.94% |
| Cc1ccc(C)c(CN2CCC(CNC(=O)c3cc4ccc5cccnc5c4[nH]3)CC2)c1 | 14.3% |
| Cc1cc(N[C@@H](CC(C)C)C(=O)Nc2ccccc2)nc(NCC2CCCCC2)n1 | 16.7% |
| O=C(Nc1ccc(-c2csc(-c3nc4ccccc4[nH]3)c2)cc1)Nc1ccsc1 | 7% |
| CCCC(=O)NC(c1cccs1)c1cc(Cl)c2cccnc2c1O (configuration not stated) | 5.11% |
| Cc1nc(Nc2ccc(F)cc2)nc(N2CCc3ccccc3C2C)c1CO (configuration not stated) | 3.52% |
| COc1cc2nc(N(C)CC3COc4ccccc4O3)nc(N)c2cc1OC (configuration not stated) | 6.08% |
| COc1cc(-n2cnc3cc(-c4ccc([N+](=O)[O-])cc4)sc3c2=O)ccc1OCCN1CCCC1 | 7.3% |
| CCOC(=O)C(C(C)=O)C(c1ccccc1)C(C(C)=O)C(=O)OCC (configuration not stated) | -0% |
| O=C(Nc1ccc(-c2oc(C(=O)NCCc3cccc(Cl)c3)cc2-c2ccncc2)cc1)Nc1cccc(Cl)c1 | 2.78% |
| N#Cc1ccc2[nH]cc(CN3CCC4(CC3)CN(CCNCc3ccccc3)C(=O)CO4)c2c1 | 0.85% |
| COc1ccccc1C1CC(c2ccccc2)=NN1C(=O)c1ccccc1 (configuration not stated) | 2.07% |
| COc1ccc(CCn2c(=N)c(C(=O)NCc3cccnc3)cc3c(=O)n4ccccc4nc32)cc1 | 0.87% |
| CC1CC(C)CN(S(=O)(=O)c2cc(C(=O)Nc3cccc([N+](=O)[O-])c3)ccc2Br)C1 (configuration not stated) | 2.38% |
| COc1ccc(NC(=O)CCNc2ccnc(NCCc3ccc(F)cc3)n2)cc1 | 4.65% |
| CCOC(=O)c1cc2c(CCN3C(=O)c4ccccc4C3=O)cn(C)c2cc1-c1ccncc1 | 30.4% |
| Cc1[nH]c(C)c(-c2ccc(CCc3ccc(N)cc3)cc2)c(=O)c1Cl | 1.89% |
| CCN1CCC(N(Cc2ccc(-c3ccc(C(F)(F)F)cc3)cc2)C(=O)Cn2c(SCc3ccc(F)cc3)nc(=O)c3c2CCC3)CC1 | 12.5% |
